Results published in PMC4336329 (PLoS ONE, 2015).
In all, about 310,000 compounds went through this assay and about 14,000 (4.5%) showed an effect of 50% or more. The effect is printed as a negative number. The list shows a part of the results.

Molecular target: human ether-à-go-go-related gene (hERG) potassium channel (human, UniProt Q12809)
Test: primary screen, population patch clamp on CHO cells stably expressing hERG
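Note: peak tail current of the secondary pulse compared with the same well before compound.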

human ether-à-go-go-related gene (hERG) potassium channel, sequence (Q12809 whole entry, looked up): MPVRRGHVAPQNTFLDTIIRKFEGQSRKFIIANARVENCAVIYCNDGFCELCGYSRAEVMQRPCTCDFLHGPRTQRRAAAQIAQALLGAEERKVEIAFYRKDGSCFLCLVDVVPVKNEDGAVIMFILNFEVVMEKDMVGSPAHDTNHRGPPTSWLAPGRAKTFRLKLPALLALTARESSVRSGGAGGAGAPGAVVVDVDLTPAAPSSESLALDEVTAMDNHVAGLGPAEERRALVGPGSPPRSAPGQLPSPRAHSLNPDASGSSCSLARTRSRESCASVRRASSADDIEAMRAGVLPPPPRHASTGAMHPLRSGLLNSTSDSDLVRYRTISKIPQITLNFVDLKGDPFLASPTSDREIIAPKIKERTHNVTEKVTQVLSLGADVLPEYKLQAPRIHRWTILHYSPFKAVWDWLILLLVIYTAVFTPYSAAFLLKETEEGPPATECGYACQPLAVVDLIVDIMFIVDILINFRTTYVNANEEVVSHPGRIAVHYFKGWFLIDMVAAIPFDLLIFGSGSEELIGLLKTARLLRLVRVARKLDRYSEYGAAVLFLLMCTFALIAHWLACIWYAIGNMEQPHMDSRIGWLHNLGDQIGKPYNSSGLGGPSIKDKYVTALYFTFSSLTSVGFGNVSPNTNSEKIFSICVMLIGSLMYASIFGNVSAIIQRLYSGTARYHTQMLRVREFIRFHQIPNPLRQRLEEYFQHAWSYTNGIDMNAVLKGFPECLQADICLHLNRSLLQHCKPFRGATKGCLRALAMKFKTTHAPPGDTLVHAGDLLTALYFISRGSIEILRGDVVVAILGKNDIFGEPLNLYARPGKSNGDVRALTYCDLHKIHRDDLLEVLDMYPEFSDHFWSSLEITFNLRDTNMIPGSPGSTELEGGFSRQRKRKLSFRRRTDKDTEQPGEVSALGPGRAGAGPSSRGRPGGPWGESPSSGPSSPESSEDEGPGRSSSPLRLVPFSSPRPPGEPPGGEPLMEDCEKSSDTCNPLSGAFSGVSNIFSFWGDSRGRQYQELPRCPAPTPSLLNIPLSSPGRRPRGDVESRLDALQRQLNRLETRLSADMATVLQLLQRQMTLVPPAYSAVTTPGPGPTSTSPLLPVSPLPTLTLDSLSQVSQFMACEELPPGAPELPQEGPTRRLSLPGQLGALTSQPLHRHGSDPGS

Going from `CC(C)c1nc(SCC(=O)NCC2CCCO2)c2c(=O)n(C)c(=O)n(C)c2n1` (stereo not drawn) to `O=C(CSc1nc(-c2ccco2)cc(C(F)(F)F)n1)NCCN1CCOCC1`, the “hERG current change (%, negative = inhibition) at 10uM” value falls from -0.765% to -2.09%.

First: O=C(/C=C/c1ccccc1)Oc1cccc2cccnc12
Second: COc1ccc(Cn2ccnc2SCC(=O)Nc2ccccc2OC)cc1
The “hERG current change (%, negative = inhibition) at 10uM” value of the first is higher: 4.22% for the first, -21.2% for the second.

Compared with `O=C(COC(=O)CC(c1ccccc1)c1ccccc1)Nc1c(F)cccc1F`, `O=C(COC(=O)CC(c1ccccc1)c1ccccc1)Nc1ccc(F)c(F)c1` is lower in “hERG current change (%, negative = inhibition) at 10uM” value: 3.58% for the first, -16.5% for the second.

Going from `COc1ccc(-c2csc3ncnc(N4CCN(c5ccccc5)CC4)c23)cc1` to `Cc1cc(N2CCN(c3nc(-c4ccc([N+](=O)[O-])cc4)cs3)CC2)c2ccccc2n1`, the “hERG current change (%, negative = inhibition) at 10uM” value falls from 12.3% to -33.4%.

Compared with `O=C(CCc1cccc(Cl)c1)N1CCCC(Nc2ccccc2)C1` (stereo not drawn), `O=C(Nc1ccccc1)NC1CCCc2ccccc21` (stereo not drawn) is higher in “hERG current change (%, negative = inhibition) at 10uM” value: -22.6% for the first, 22.2% for the second.

Compared with `N#Cc1c(SCC(=O)Nc2nc3ccccc3s2)sc2c(O)cc(=O)[nH]c12`, `CN(C)S(=O)(=O)c1ccc(N2CCCC2)c(C(=O)Nc2nc3ccccc3s2)c1` is lower in “hERG current change (%, negative = inhibition) at 10uM” value: 20.7% for the first, -4.58% for the second.

First: Cc1ccc(S(=O)(=O)N2CCN(C(=O)c3cc(-c4cccs4)nn3-c3ccccc3)CC2)cc1
Second: CC(=O)c1ccc(S(=O)(=O)N2CCN(S(=O)(=O)c3ccccc3C(F)(F)F)CC2)cc1
The “hERG current change (%, negative = inhibition) at 10uM” value of the first is lower: 8.93% for the first, 17.9% for the second.

First: CCOC(=O)C1CCN(C(=O)c2ccccc2NS(=O)(=O)c2ccc(C)cc2)CC1
Second: COC(=O)C1C/C(=N\NS(=O)(=O)c2ccc(C)cc2)c2ccsc2C1 (stereo not drawn)
The “hERG current change (%, negative = inhibition) at 10uM” value of the first is higher: 12.4% for the first, -9.22% for the second.

First: CCC1C(=O)n2nc(-c3ccccc3)cc2N=C1C (stereo not drawn)
Second: CCc1nc(C)c(-c2ccccc2)c(=O)[nH]1
The “hERG current change (%, negative = inhibition) at 10uM” value of the first is lower: 1.22% for the first, 5.92% for the second.

Going from `CNc1ccc2c3c(cccc13)C(=O)N(C)C2=O` to `COc1ccnc2c1c(=O)n(Cc1ccc(F)cc1)c(=O)n2C`, the “hERG current change (%, negative = inhibition) at 10uM” value falls from 7.27% to -6.22%.

Going from `O=C(CSc1nc2[nH]ncc2c(=O)[nH]1)Nc1cccc(Cl)c1` to `Nn1c(SCC(=O)Nc2cccc(F)c2)nnc1C1CCCCC1`, the “hERG current change (%, negative = inhibition) at 10uM” value falls from 4.2% to -0.18%.

Compared with `Cc1cccc(C2NC(=O)c3ccccc3O2)c1` (stereo not drawn), `Cc1ccc(CNC(=O)CN(C)C2=NS(=O)(=O)c3ccccc32)cc1` is lower in “hERG current change (%, negative = inhibition) at 10uM” value: 7.59% for the first, -25.6% for the second.

First: Cl.O=C(c1ccco1)N1CCN(C(c2ccccc2Cl)c2nnnn2Cc2ccco2)CC1 (stereo not drawn)
Second: O=C(NCC(=O)N(c1ccccc1F)C(C(=O)NC1CCCC1)c1ccco1)c1ccco1 (stereo not drawn)
The “hERG current change (%, negative = inhibition) at 10uM” value of the first is lower: -65.1% for the first, 5.88% for the second.

Compared with `Cc1ccc(C(=O)N/C(=C\c2ccccc2)C(=O)NCCN2CCOCC2)cc1`, `Cc1ccc(N2C(=O)CCC2(C(N)=O)c2ccccc2)cc1` (stereo not drawn) is higher in “hERG current change (%, negative = inhibition) at 10uM” value: -62.4% for the first, -0.976% for the second.

First: O=C(Nc1nc2ccc(Oc3ccccc3)cc2s1)c1cc([N+](=O)[O-])ccc1N1CCOCC1
Second: O=C(c1ccccc1)N1CCN=C1SCc1ccc([N+](=O)[O-])cc1
The “hERG current change (%, negative = inhibition) at 10uM” value of the first is higher: 4.29% for the first, -56.4% for the second.

Compared with `O=C(c1cccnc1)N1N=C2CCCCCC2C1(O)C(F)(F)F` (stereo not drawn), `C/C(=N\NC(=O)C(N)=O)c1cccc(C(F)(F)F)c1` is higher in “hERG current change (%, negative = inhibition) at 10uM” value: 5.59% for the first, 34.8% for the second.

Going from `CSc1ccccc1NC(=O)CN(C)C(=O)C1CCN(C(=O)Nc2ccccc2)CC1` to `CC1CN=C(N(C(=O)Nc2ccccc2)C(C)c2ccccc2)S1` (stereo not drawn), the “hERG current change (%, negative = inhibition) at 10uM” value rises from -11.4% to 14.5%.

Compared with `Cc1ccc(OCc2nnc(SCc3cc(=O)[nH]c4ccccc34)o2)cc1`, `CCN(c1ccccc1)S(=O)(=O)c1ccc(C(=O)Nc2nnc(CSC)o2)cc1` is lower in “hERG current change (%, negative = inhibition) at 10uM” value: 5.49% for the first, 3.97% for the second.

Compared with `O=C1CC(c2cccc(Cl)c2)c2cc3c(cc2N1)CCC3` (stereo not drawn), `O=C1CC(N2CCCc3ccccc32)C(=O)N1c1ccccc1Cl` (stereo not drawn) is lower in “hERG current change (%, negative = inhibition) at 10uM” value: 12.7% for the first, -6.32% for the second.

Going from `CCOC(=O)c1cc(CC)sc1NC(=O)COC(=O)c1cc[n+]([O-])cc1` to `COc1cc(Cl)c(C)cc1NC(=O)COC(=O)CCc1nc2ccccc2c(=O)[nH]1`, the “hERG current change (%, negative = inhibition) at 10uM” value falls from -3.23% to -3.99%.

Compared with `COc1ccc(N/C=C(\C(C)=O)c2ccc(OC)c(OC)c2)cc1OC`, `COc1cc(C(=O)N2CCC(C(=O)Nc3cccc(C(C)=O)c3)CC2)cc(OC)c1OC` is lower in “hERG current change (%, negative = inhibition) at 10uM” value: 18.2% for the first, -2.12% for the second.

Compared with `COc1ccc(C(=O)COC(=O)CCn2nnc(-c3cccc(O)c3OC)n2)cc1`, `COc1ccc(C(=O)COC(=O)CCNS(=O)(=O)c2ccccc2)cc1Br` is lower in “hERG current change (%, negative = inhibition) at 10uM” value: 13.9% for the first, -1.53% for the second.

Compared with `CCCCOC(=O)c1cc(=O)[nH]c(=O)[nH]1`, `CCCc1ccc(OCC(=O)O)cc1` is lower in “hERG current change (%, negative = inhibition) at 10uM” value: 16% for the first, 13.6% for the second.

Going from `COc1ccccc1-c1nc(SCC(=O)O)n[nH]1` to `Cc1nn(-c2ccccc2)c2sc(-c3nnc(SCC(=O)O)o3)cc12`, the “hERG current change (%, negative = inhibition) at 10uM” value rises from -1.65% to 8.23%.

First: O=C(Nc1ccc2c(c1)C(=O)N(C1CCCCC1)C2=O)C1CCCO1 (stereo not drawn)
Second: COc1ccc(NC(=O)C2CCCN(c3ncnc4onc(-c5ccc(F)cc5)c34)C2)cc1 (stereo not drawn)
The “hERG current change (%, negative = inhibition) at 10uM” value of the first is lower: -14.6% for the first, -7.24% for the second.

Going from `COc1ccc(-c2nc(C#N)c(N3CCCCC3)o2)cc1` to `COc1ccc2c(c1)C(c1ccc(N3CCOCC3)cc1)=NNC(c1cccnc1)=N2`, the “hERG current change (%, negative = inhibition) at 10uM” value falls from -2.53% to -5.34%.

Going from `CC1CCCN(C(=O)Cn2c(-c3nonc3N)nc3ccccc32)C1` (stereo not drawn) to `Cc1cc2c(cc1C)N(CC(=O)N1CCCC1)C(=O)CC(c1ccccc1)=N2`, the “hERG current change (%, negative = inhibition) at 10uM” value falls from -4.01% to -23.9%.

Compared with `Cc1cc(OC(=O)c2ccc(C(F)(F)F)cc2)c([N+](=O)[O-])c(=O)[nH]1`, `O=C(O)C1=C[C@H](c2ccc(C(F)(F)F)cc2)C[C@H](OCCCCO)O1` is lower in “hERG current change (%, negative = inhibition) at 10uM” value: 16.1% for the first, 8.42% for the second.

Compared with `N#Cc1ccc(CSc2nnc(-c3ccncc3)o2)cc1`, `c1cc(-c2nsc(-c3ccncc3)n2)ccn1` is higher in “hERG current change (%, negative = inhibition) at 10uM” value: -43.7% for the first, -6.31% for the second.

Compared with `Cc1c(Nc2nc3ccccc3nc2NS(=O)(=O)c2ccccc2)c(=O)n(-c2ccccc2)n1C`, `Cc1nn(-c2ccc(F)cc2)c(C)c1NS(=O)(=O)c1ccc2ccccc2c1` is higher in “hERG current change (%, negative = inhibition) at 10uM” value: -67.1% for the first, 10.9% for the second.

First: COc1cc(OC)cc(C(=O)NNC(=O)c2cc(=O)[nH]c3ccccc23)c1
Second: COc1cc(/C=C/C(=O)OCC(=O)Nc2c(C)n(C)n(-c3ccccc3)c2=O)ccc1O
The “hERG current change (%, negative = inhibition) at 10uM” value of the first is lower: -13% for the first, 12.2% for the second.

Compared with `CCCS(=O)(=O)c1c(S(=O)(=O)CCC)c2cnccn2c1C(=O)c1ccc(CC)cc1`, `CC(=O)Nc1ccc(S(=O)(=O)N2CCN=C2SCc2ccc(F)cc2)cc1` is higher in “hERG current change (%, negative = inhibition) at 10uM” value: -37.5% for the first, -1.91% for the second.

Going from `COc1ccc2nc3ccccc3nc2c1NC(=O)c1ccc(Cl)cc1` to `O=C(OCCC1Oc2cccnc2NC1=O)c1ccc(Cl)cc1` (stereo not drawn), the “hERG current change (%, negative = inhibition) at 10uM” value rises from 3.31% to 10.1%.

First: O=C(CCSCCC(=O)NCCN1CCOCC1)NCCN1CCOCC1
Second: OCCC1CN(Cc2cnc(N3CCOCC3)s2)CCN1C1CCCC1 (stereo not drawn)
The “hERG current change (%, negative = inhibition) at 10uM” value of the first is higher: 8.96% for the first, 8.52% for the second.

Compared with `Cc1cnc(C(=O)Oc2c(C)ccc(C)c2C)cn1`, `Cc1cc(C)c(COc2ccc(/C=N/n3c(C)n[nH]c3=S)cc2)c(C)c1` is higher in “hERG current change (%, negative = inhibition) at 10uM” value: -19.4% for the first, 7.78% for the second.

Going from `CCCCn1nc(C(=O)Nc2nc3c(s2)CCCC3)c2ccccc2c1=O` to `CCCCN1C=CC(=C2C(=O)c3ccccc3C2=O)C=C1`, the “hERG current change (%, negative = inhibition) at 10uM” value rises from -6.91% to -1.69%.

Compared with `CCc1nnc(NC(=O)CCC(=O)N2CCCC2)s1`, `CCOc1ccc2nc(N(Cc3ccccc3)C(=O)CCNC(C)=O)sc2c1` is lower in “hERG current change (%, negative = inhibition) at 10uM” value: 10.2% for the first, -61% for the second.

First: Br.COc1ccc(/C=N/Nc2nc(C(=O)O)cs2)cc1
Second: Cc1ccc(OC(=S)Nc2ccc(O)cc2)cc1
The “hERG current change (%, negative = inhibition) at 10uM” value of the first is higher: 16% for the first, -21.3% for the second.

Going from `CC1CN2c3ccc([N+](=O)[O-])cc3CC3(C(=O)N(C)C(=O)N(C)C3=O)C2C(C)O1` (stereo not drawn) to `COc1ccc(C(=O)O/N=C(\N)Cc2ccc([N+](=O)[O-])cc2)c(OC)c1`, the “hERG current change (%, negative = inhibition) at 10uM” value falls from 12% to -57.1%.

Going from `C/C(CCc1ccc2c(c1)OCO2)=N\NC(=O)c1ccccc1` to `Nc1nonc1-n1nnc(C(=O)N/N=C/c2ccccc2Cl)c1CSc1ccccc1`, the “hERG current change (%, negative = inhibition) at 10uM” value rises from 9.96% to 20.9%.

First: CSC1=NCCN1S(=O)(=O)c1ccc2ccccc2c1
Second: CC(C)N(C(=O)c1ccc(-c2ccccc2F)cc1)C(C)C
The “hERG current change (%, negative = inhibition) at 10uM” value of the first is lower: -13.2% for the first, 4.34% for the second.

First: O=C(CCSCCC(=O)Nc1c(F)c(F)c(F)c(F)c1F)Nc1c(F)c(F)c(F)c(F)c1F
Second: O=c1[nH][nH]c(-c2ccccc2O)c1C(C[N+](=O)[O-])c1ccc(Br)cc1 (stereo not drawn)
The “hERG current change (%, negative = inhibition) at 10uM” value of the first is lower: -7.23% for the first, 15% for the second.

Going from `COc1ccc(CN2CCN(CC=C(C)C)C(CCO)C2)cc1Cn1cncn1` (stereo not drawn) to `Clc1ccc(CN2CCC(c3nc4ccc(Cl)cc4[nH]3)CC2)cc1`, the “hERG current change (%, negative = inhibition) at 10uM” value falls from -0.719% to -80.7%.

With `O=C(O)c1ccc(OCCCCCCOC2CCCCO2)cc1` (stereo not drawn) the “hERG current change (%, negative = inhibition) at 10uM” value was 19.1%.
